# Source: the RNAGym collection of RNA variant scans (doi:10.1073/pnas.2313332121)
# This sample is rich in variants without activity.
# B1: TPR 5TU (parent)
# chain: GGAUCUUCUCGAUCUAACAAAAAAGACAAAUCUGCCACAAAGCUUGAGAGCAUCUUCGGAUGCAGAGGCGGCAGCCUUCGGUGGCGCGAUAGCGCCAACGUUCUCAACUAUGACACGCAAAACGCGUGCUCCGUUGAAUGGAGUUUAUCAUG
# Variants of: B1
# Assay: polymerase ribozyme fitness, log enrichment relative to wild type (log ratio); higher = more active; in vitro selection for triplet polymerase activity
# In short: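 Frozen incubation at −7 °C formed the core of a single, triplicate in vitro selection round applied to PCR-built, transcribed mutant libraries of each subunit of a heterodimeric triplet polymerase ribozyme. Extended constructs were gel-excised, captured with streptavidin beads and amplified by RT-PCR, and input and output libraries were Illumina-sequenced with a filter of ≥10 input reads and ≥1 read per output. Fitness is the logarithm of genotype enrichment relative to wild-type enrichment, with inverse-variance-weighted replicate averaging, and the logarithm is base 2.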
row,Variant,polymerase ribozyme fitness (log ratio)
1,GGAUCUUCUUGAUCUAACAAAAAAGACAAAUCUGCCACAAAGCUUGAGAGCAUCUUCGGAUGCAGAGGCGGCAGCCUUCGGUGGCGCGAUAGCGCCAACGUUCUCAACUAUGACACGCAAAACGCGUGCUCCUUUGAAUGGAGUUUAUCAUG,≤ -4.2
2,GGAUCUUCUUGAUCUAACAAAAAAGACAAAUCUGCCACAAAGCUUGAGAGCAUCUUCGGAUGCAGAGGCGGCAGCCUUCGGUGGCGCGAUAGCGCCAACGUUCUCAACUAUGACACGCAAAACGCGUGCUCCGUUGAAUGAAGUUUAUCAUG,-2.07
3,GGAUCUUCUUGAGCUAACAAAAAAGACAAAUCUGCCACAAAGCUAAAGAGCAUCUUCCGAUGUAGAGGCGGCAGCCUUCGGUGGCGCGAUAGCGCCAACGUUCUCAACUAUGACACGCAAAACGCGUGCUCCGUUGAAUGUAGUUUAUCAUG,≤ -4.2
4,GGAUCUUCUUGAUCCAACAAAAAUGACAGAUCUGCCACAAAGCUUGAGCGCAUCUUCGGAUGCAGAGGCGGCAGUCUUCGGUGGCGCGAUAGGGCCAACGUUCUCAACUAUGACAUGCAAAACGCGUGCUCCUUUGAACGGAGUUUAUCAUG,≤ -4.2
5,GGAUCUUCUUGAUCGAACAAAAUAGACAAAUCUGCCACAAAGUUUGAGAGCAUCUUCGGAUGCAGAGGCGGCAGCCUUCGGCGGCGCGAUAUCGCCAACGUUCCCAACUAUGACACGCAAAACGCGUGCUCCGUUGAAUGGAGUUUAUCAUG,≤ -4.2
6,GGAUCUUCUUGAUCGAACAAAAAAGACAAAUCUGCCACAAAGCUUGAGACCAUCUUCGGAUACAGAGGCGGUAGCCUUCGGUGGCGCGAUAGCGCCAACGUUCUCUACGAUGACACGCUAAAUGCGUGCUCCGUUGAACGGAGUUUAUCAUG,≤ -4.2
7,GGAUCUUCUUGAUCUAACAAAAAAGACAAAACUGCCACAAAGCUUGAGAGCAUCUUCGGGUGCAGAGGCGGCAGCCUUCGGUGGCGCGAUAGCGCCAACGUUCUUAACUAUGACACGCAAACCGCGUGCUCCGUUGAAUGCAGUGUAUCGUG,≤ -4.2
8,GGAUCUUCUUGAUCUAACAAAAAAGACAAAGCUGCCACAAAGCUUGAGAGCAUCUUCGGAUGCAGAGGCGGCAGCCUUCGGUGGUGCGAUAGAGCCAACGUUCUCAACUAUGACACGCAAAACGCGUGCUCCGUUGAAUGGAGUUUAUCAUG,≤ -4.2
9,GGAUCUUCUUGAUCUAACAAAAAAGACAAAUCGGCCACAACGCUUGAUAGCAUCUUCGGAUGCAGAGGCGGCAGCCUUCGAUGGCGCGAUAGCGCCAACGUUCUCAACUAUGAGACGCAAAACGCGUGCUCCGUUGAAUGGAGUGUAUCAUG,≤ -4.2
10,GGAUCUUCUUGAUCUAACAAAAAAGACAAAUCGGCCACAAAGUUUGAGAGCAUCAUCGAAUGCAGAGGCGGCAGCCUUCGGUGGCGAGAUAGCGACAACGUUCUCAACUAUGACACGCAAGACGCGUGCUCCGUUGAAUGGAGUUUAUCAUG,≤ -4.2
11,GGAUCUUCUUGAUCUAACAAAAAAGACAAAUCGGCCACAAAGCUUGAGAGCAUCUUCGGAUGCAGAGGCGGCAGCCUUCGGUGGUGCGAUAGCGCCAACGUUCUCUACUAUGACACGCCAAACGCGUGCUCCGUUGAAUGGAGUUUAUCAUG,≤ -4.2
12,GGAUCUUCUUGAUCUAACAAAAAAGACAAAUCUGCCACAAAGCAUGAGAGCAUCAUCGGAUGCAGAGGCGGCAGCCUUCGGUGGCGUCAUAGCGCCAACGUCCUCAACUAUGACACGCAAAACGCGUGCUCCCUUGAAUGGAGUUUAUCAUG,≤ -4.2
13,GGAUCUUCUUGAUCUAACAAAAAAGACAAAUCUGCCACAAAGCGUGAGAGCAUCAUCGGAUGCAGAGGCGGCAGCCUUCGGUGGCGCGAUAGAGCCAACGUUCUCAACUAUGACACGCAGAACGCGUGCUCCGUUGAAUGGAGUUUAUCAUG,≤ -4.2
14,GGAUCUUCUUGAUCUAACAAAAAAGACAAAUCUGCCACAAAGCUAGAGAGCAUAUUCGGAUGCAGAGGCGCCAGCCUUCGGUGGCGCGAUAGCGCCAACGUUCUCAACUAUGACACGCAAAACGCGUGCUCCGUUUAAUGGAGUUUAUCAUG,≤ -4.2
15,GGAUCUUCUUGAUCUAACAAAAAAGACAAAUCUGCCACAAAGCUAGAGAGCAUCUUCGGAUGCAGAGGCGGCAGCCUUCGGUGGCGCGAUAGCGCCAAAGUUCUCAACUAUGACACGCAAAACGCGUGCUCCGUUGAAUGGAGUUUAUCAUG,≤ -4.2
16,GGAUCUUCUUGAUCUAACAAAAAAGACAAAUCUGCCACAAAGCUUGAGAGCAAUAUCGGAUGCAGAGGCGGCAGGCUUCGGUGGCGCGAUAGCGCCAACGUUCUUAACUAUGACACGCAAAACGCGUGCUCCGUUGAAUGGAUUCUAACAUG,≤ -4.2
17,GGAUCUUCUUGAUCUAACAAAAAAGACAAAUCUGCCACAAAGCUUGAGAGCAUCAUCGGAUGCAGAGGCGGCAGCCUUCGGUGGCGCGAUAGCGCCAACGUUCUCAACUAUGACACGCAAAACGCGUGCUCCGUUGAAUGGAGUUUAUCAUG,-2.91
18,GGAUCUUCUUGAUCUAACAAAAAAGACAAAUCUGCCACAAAGCUUGAGAGCAUCAUCGGAUGCAGAGGCGGUAGCCUUCGGUGGCGCGAUAGCGCCAACGUUCUCAACUAUGACACGCAAAACGCGUGCUCCGUUGAAUGGAGUUUAUCAUG,-3.95
19,GGAUCUUCUUGAUCUAACAAAAAAGACAAAUCUGCCACAAAGCUUGAGAGCAUCAUCGGAUGCAGAGGCGGCAGCCUUCAGUGGCGACAUAGCGCCAACGUUCUCAACUAUGACACGCAAAACGCGUGCUCCGUUGCAUAGACUUGAUCAUG,≤ -4.2
